Measured values published in US8652533B2 (priority 2004, dated 2014).

How the values were obtained:
SARS (Toronto-2 Strain) = type: cell-based, SARS coronavirus (SARSCoV); details: conc. 1 μM; Vero 76 cells, Toronto-2 virus, 72 hours
Vero 76 cells = details: conc. 1 μM

Compound	% CPE (INHIBITION) (SARS (Toronto-2 Strain)) [%]	% CELL VIABILITY (Vero 76 cells) [%]
O=C(O[C@@H]1Cc2c(O)cc(O)cc2O[C@@H]1c1ccc(O)c(O)c1)c1cc(O)c(O)c(O)c1 [(−)-Epicatechin Gallate]	100	100
O=C(O[C@@H]1Cc2c(O)cc(O)cc2O[C@@H]1c1cc(O)c(=O)c2c(O)c(O)cc([C@H]3Oc4cc(O)cc(O)c4C[C@H]3OC(=O)c3cc(O)c(O)c(O)c3)c2c1)c1cc(O)c(O)c(O)c1 [Theaflavindigallate]		100
O=C(O[C@@H]1Cc2c(O)cc(O)cc2O[C@H]1c1ccc(O)c(O)c1)c1cc(O)c(O)c(O)c1 [(−)-Catechin Gallate]	100	100
Theaflavindigallate-A	15.03	100
O=c1c(O)cc([C@H]2Oc3cc(O)cc(O)c3C[C@H]2O)cc2c([C@H]3Oc4cc(O)cc(O)c4C[C@H]3O)cc(O)c(O)c12 [free Theaflavin]	53.27	100
(−)-Gallocatechin Gallate	100	100
Oc1cc(O)c2c(c1)O[C@@H](c1cc(O)c(O)c(O)c1)[C@H](O)C2 [(−)-Gallocatechin]	0	100
Oc1cc(O)c2c(c1)O[C@H](c1cc(O)c(O)c(O)c1)[C@@H](O)C2 [(+)-Gallocatechin]	6.21	37.41
(−)-Catechin	0	100
Oc1cc(O)c2c(c1)O[C@H](c1cc(O)c(O)c(O)c1)[C@H](O)C2 [(−)-Epigallocatechin]	25.82	100
Theaflavindigallate-B	6.21	100
(−)-Epigallocatechin Gallate	100	100
